Measurements taken from the supplement of paper PMC8183993.
“And” between values parts separate entries of the source, which are not always exact repeats. Equal entries are not always repeated. Structures can show the parent of a compound that is named as a salt. ± gives the standard deviation of the averaged measurements. Over roughly 3,100 compounds, “mean cytoplasmic OPP incorporation (global translation) relative to DMSO” has its median near 100; the lowest 2% begin near 56. The list shows a part of the results.

Each compound was assayed on U2OS (assay: mean cytoplasmic OPP incorporation (global translation) relative to DMSO (% of DMSO); higher = more protein synthesis). Details: 10 µM; 24 h.
Experimental: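 Primary image-based screen in U2OS cells: compounds at 10 uM for 24 h, then a 1 h o-propargyl-puromycin (OPP) pulse, click labelling, and high-throughput microscopy. Mean cytoplasmic OPP intensity and nuclei count were normalised to DMSO wells within each plate (DMSO = 100) and averaged over triplicate plates.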

Structure (SMILES)	mean cytoplasmic OPP incorporation
O=C(O)CC/C=C\C[C@H]1CO[C@@H](c2ccccc2Cl)O[C@H]1c1ccccc1O	97.5
C[C@]12C=CC(=O)C=C1CC[C@@H]1[C@@H]2[C@@H](O)C[C@@]2(C)[C@H]1CC[C@]2(O)C(=O)CO [Prednisolone]	96.5
O=c1ncn2nc(Sc3ccc(F)cc3F)ccc2c1-c1c(Cl)cccc1Cl	99
O=c1[nH]cc(F)c(=O)[nH]1 [5-fluorouracil]	107
CS(=O)(=O)c1ccc([C@@H](O)[C@@H](CO)NC(=O)C(Cl)Cl)cc1 [Thiamphenicol]	101
Cc1cncc(CN2CCC(=C3c4ccc(Cl)cc4CCc4cccnc43)CC2)c1 [Rupatadine Fumarate]	115
CC(C)Cc1ccc([C@H](C)C(=O)O)cc1 [S-(+)-ibuprofen]	101
CC(=O)Oc1cc(C(F)(F)F)ccc1C(=O)O [Triflusal]	107
CC(C)C(=O)SCCCCCCC(=O)Nc1nc(-c2ccccc2)cs1	117
CCCCCCCC/C=C\CCCCCCCC(=O)NCc1ccc(O)c(OC)c1 [Olvanil]	100
CNC(=O)c1ccc2cc([C@@]3(O)CCn4cncc43)ccc2c1 [TAK-700 (Orteronel)]	104
N=c1ccn2c(n1)O[C@H]1[C@H](O)[C@@H](CO)O[C@H]12 [Cyclocytidine HCl]	88.6
Cc1cc(NC(=O)C2=C(O)c3ccccc3S(=O)(=O)N2C)no1 [Isoxicam]	104
Cc1cc(C(C)(C)CC(C)(C)C)ccc1OCCOCC[N+](C)(C)Cc1ccccc1 [Methyl benzethonium chloride]	108
C[C@H](CCC(=O)NCC(=O)O)[C@H]1CC[C@H]2[C@@H]3CC[C@@H]4C[C@H](O)CC[C@]4(C)[C@H]3C[C@H](O)[C@]12C [Glycodeoxycholic acid]	102
CN(C)CCCN1c2ccccc2CCc2ccc(Cl)cc21 [Clomipramine hydrochloride]	106 ± 7.5
CO[C@@]1(NC(=O)C2SC(=C(C(N)=O)C(=O)O)S2)C(=O)N2C(C(=O)O)=C(CSc3nnnn3C)CS[C@@H]21 (some centres not stated) [Cefotetan]	100
COc1cc(Br)c(S(=O)(=O)Nc2ccc(Cl)c(O[C@@H]3CCN(C)C3)c2)cc1OC	106
CCN(CC)CCOC(=O)C1(c2ccc([N+](=O)[O-])cc2)CCCC1 [Nitrocaramiphen hydrochloride]	93.8 ± 2.4
Clc1ccccc1CN1CCc2sccc2C1 [Ticlopidine hydrochloride]	97.5
Nc1ccc(O)c(C(=O)O)c1 [Mesalamine]	102
N#Cc1ccc(NCCNCC(=O)N2CCC[C@H]2C#N)nc1 [NVP DPP 728 dihydrochloride]	90.3
CN(C)c1nc(N)c(C(=O)Nc2cccnc2)nc1Cl [ACDPP hydrochloride]	97.2
COc1cc2c(cc1O)CC[C@@H]1[C@@H]2CC[C@]2(C)[C@@H](O)CC[C@@H]12 [2-Methoxyestradiol]	81.5

Structure (SMILES)	mean cytoplasmic OPP incorporation
COC(=O)C1=C(C)NC(C)=C(C(=O)OC)C1c1ccccc1[N+](=O)[O-] [Nifedipine]	92.7 ± 5.1
C#C[C@]1(O)CC[C@H]2[C@@H]3CCC4=CC(=O)CC[C@@H]4[C@H]3CC[C@@]21C [Norethindrone]	87.3
C#C[C@]1(O)CC[C@H]2[C@@H]3CCC4=CC(=O)CC[C@@H]4[C@H]3CC[C@@]21C [Norethindrone (Norethisterone)]	99.2
Cc1cc2c(cc1C1(c3ccc(C(=O)O)cn3)CC1)C(C)(C)CCC2(C)C	109
CO[C@@]1(NC(=O)C(C(=O)O)c2ccc(O)cc2)C(=O)N2C(C(=O)O)=C(CSc3nnnn3C)CO[C@@H]21 (some centres not stated) [Moxalactam disodium salt]	103
O=C(NC[C@H](O)CN1CCc2ccccc2C1)c1ccnc(NC2CCC2)c1	107
CN(CCc1ccc(Cl)c(Cl)c1)CC(O)COc1ccc(NS(C)(=O)=O)cc1 (configuration not stated)	102 and 107
COc1ccc([C@@H]2CNC(=O)C2)cc1OC1CCCC1 [(R)-(-)-Rolipram]	98.9
NC(=O)c1ccc2nc(-c3ccc(Oc4ccc(Cl)cc4)cc3)[nH]c2c1	98.1
CC(=O)NCC(=O)N1[C@@H]2CC[C@H]1c1ccc(Nc3ncc(C(F)(F)F)c(NC4CCC4)n3)cc12	71.1
Nc1ccc(S(=O)(=O)Nc2ncccn2)cc1 [Sulfadiazine]	99.4
CC(C)[C@H](C(=O)Nc1ccc(C(=O)NO)cc1)c1ccccc1	53
C#C[C@]1(OC(C)=O)CC[C@H]2[C@@H]3CCC4=C[C@@H](OC(C)=O)CC[C@@H]4[C@H]3CC[C@@]21C [Ethynodiol diacetate]	99.36 ± 0.7
CCOC(=O)C=Cc1ccc(O)c(OC)c1 [Ferulic acid ethylester]	103
N[C@H]1CCN(O)C1=O	98.7
Oc1ccc(Nc2nc(-c3ccc(Cl)cc3)cs2)cc1	87.5 ± 3.6
N#Cc1ccc2[nH]c(O)c(-c3ccc(CN4CCOCC4)cn3)c2c1	109
COc1cc2ncnc(Nc3ccc(Cl)cc3F)c2cc1OC	97.5 and 93.4
CO[C@H]1C[C@@H]2CC[C@@H](C)[C@@](O)(O2)C(=O)C(=O)N2CCCC[C@H]2C(=O)O[C@H]([C@H](C)C[C@@H]2CC[C@@H](O)[C@H](OC)C2)CC(=O)[C@H](C)/C=C(\C)[C@@H](O)[C@@H](OC)C(=O)[C@H](C)C[C@H](C)/C=C/C=C/C=C/1C [Rapamycin]	94.8
CO[C@H]1C[C@@H]2CC[C@@H](C)[C@@](O)(O2)C(=O)C(=O)N2CCCC[C@H]2C(=O)O[C@H]([C@H](C)C[C@@H]2CC[C@@H](O)[C@H](OC)C2)CC(=O)[C@H](C)/C=C(\C)[C@@H](O)[C@@H](OC)C(=O)[C@H](C)C[C@H](C)/C=C/C=C/C=C/1C [Rapamycin (Sirolimus)]	93.7 ± 1.3
Cc1cccc(CCN2CCC(C(=O)c3ccc(NS(C)(=O)=O)cc3)CC2)n1 [E-4031 dihydrochloride]	95.9
N[C@@H]1CCCN(c2c(/C=C3\SC(=O)NC3=O)cccc2-c2ccccc2)C1	99.8
Cc1[nH]c(/C=C2\C(=O)Nc3ccccc32)c(C)c1CCC(=O)O	102
